Results as given in article PMC6919601, “Identification of Plasmodium dipeptidyl aminopeptidase allosteric inhibitors by high throughput screening” (PLoS ONE, 2019).
Values joined by “and” are separate entries in the source; they are usually repeats but may differ in a detail not shown here. Identical values can stand only once. Out of some 110,000 compounds screened, about 230 (0.21%) showed an effect of 50% or more. The list shows a part of the results.

molecular target: DPAP1 (Plasmodium falciparum, UniProt Q8IIJ9); experiment: primary screen, percent inhibition; read by cleavage of a fluorogenic dipeptide substrate; higher = more effect of the substance; design: species or system P. falciparum D10 trophozoite lysates; single well
Sequence (Q8IIJ9 whole entry, looked up): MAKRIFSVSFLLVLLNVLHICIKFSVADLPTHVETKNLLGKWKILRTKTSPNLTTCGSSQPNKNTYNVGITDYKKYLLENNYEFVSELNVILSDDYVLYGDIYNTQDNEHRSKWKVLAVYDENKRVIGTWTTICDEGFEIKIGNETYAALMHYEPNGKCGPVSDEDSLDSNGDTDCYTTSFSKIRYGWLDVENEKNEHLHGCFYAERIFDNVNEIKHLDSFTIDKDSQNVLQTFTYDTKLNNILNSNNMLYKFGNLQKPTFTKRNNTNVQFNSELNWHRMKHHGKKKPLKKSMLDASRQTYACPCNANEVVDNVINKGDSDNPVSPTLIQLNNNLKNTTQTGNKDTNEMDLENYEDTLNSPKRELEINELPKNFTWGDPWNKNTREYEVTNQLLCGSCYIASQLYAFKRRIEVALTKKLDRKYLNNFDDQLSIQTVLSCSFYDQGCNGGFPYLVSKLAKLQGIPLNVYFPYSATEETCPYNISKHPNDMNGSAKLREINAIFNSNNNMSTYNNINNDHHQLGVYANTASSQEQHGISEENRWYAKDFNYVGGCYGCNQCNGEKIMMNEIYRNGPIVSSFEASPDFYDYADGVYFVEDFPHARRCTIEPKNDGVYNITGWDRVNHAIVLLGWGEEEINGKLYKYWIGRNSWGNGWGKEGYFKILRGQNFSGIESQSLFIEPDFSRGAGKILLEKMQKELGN
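Also: 30 min substrate incubation versus DMSO and 10 µM JCP410 controls.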

Structure (SMILES)	% Inhibition @ 10 uM
COc1ccccc1C(NC(=O)Cc1ccccc1)c1c(O)ccc2ccccc12 (centres unmarked)	-1.48%
CCSc1ncc(Cl)c(C(=O)Nc2sc3c(c2C(=O)NCc2cccnc2)CCC3)n1	3.77%
COc1cc2c(cc1OC)CN(C(=O)CSc1ncnc3sc(C)c(C)c13)CC2	-1.04%
Cc1ccc(CNC(=O)CCc2nnc3n(CCc4ccccc4)c(=O)c4ccccc4n23)cc1	5.68%
Cc1ccc(C(=O)N/C(=C/c2cccs2)C(=O)Nc2cccc(F)c2)cc1	-2.79%
CCCOc1ccc(C2Nc3ccccc3C(=O)N2CCC)cc1OC (centres unmarked)	-1.08%
COCCN1C(=S)NC2c3cccc(OC)c3OC1(C)C2C (centres unmarked)	-0.58%
COc1ccc(N2C(=O)C(Cl)=C(Nc3ccc(C)cc3)C2=O)cc1	4.75%
COc1ccc(CNC(=O)CN(c2cccc(OC)c2)S(C)(=O)=O)cc1	-1.43%
CCn1c2ccccc2c2cc(CN3CCN(c4ccc(C)cc4)CC3)ccc21	1.54%
CCOC(=O)N1CCN(c2c(NCCC(C)C)c(=O)c2=O)CC1	1.93%
CC1CC(NS(=O)(=O)c2cccs2)CC(C)(C)C1 (centres unmarked)	3.27%
CC(C)CC(NC(=O)N1CCC(N2CCCCC2)CC1)C(=O)NCC#N (centres unmarked)	-0.972%
O=C(Nc1cccnc1)c1cc(=O)c2cc(Cl)ccc2o1	1.7%
Cc1nn(-c2ccccc2)c(-n2cccc2)c1C(=O)N1CCC(C(=O)N2CC(C)CC(C)C2)CC1 (centres unmarked)	-3.35%
Oc1nnnc2c1sc1nc(-c3ccccc3)cc(-c3ccco3)c12	-0.808%
COc1ccc(COC(=O)C2=C(C)NC(=O)CC2c2cc3c(cc2Br)OCO3)cc1 (centres unmarked)	-4.16%
COCCCNC(=O)COc1ccc(-c2ccc(C#N)cc2)cc1	-1.59%
O=C(NCc1ccc2c(c1)OCO2)c1nc(Cn2c(C(F)(F)F)nc3ccccc32)no1	2.62%
CN(C)CCN(Cc1ccccc1)Cc1c(F)cccc1Cl	1.62%
Cc1ccc(-n2nnc(-c3nc(-c4ccccc4)no3)c2N)cc1C	-4.46%
O=C(NCc1ccc2c(c1)OCO2)c1ccc(CS(=O)c2ccc(Cl)cc2)o1 (centres unmarked)	-8.9%
CCn1ncc(C(=O)Nc2cccc(Cl)c2)c1C	6.03%
CC1CCN(S(=O)(=O)c2ccc(NC(=O)C3CC3)cc2)CC1	2.48%
C=CCNC(=O)C1CC=CCC1C(=O)N(c1ccccc1)c1ccccc1 (centres unmarked)	-0.0217%

Structure (SMILES)	% Inhibition @ 10 uM
COc1ccc(CNC(=O)C2C3CCC(O3)C2C(=O)O)cc1 (centres unmarked)	0.142%
c1ccc2c(c1)ccn2Sn1cnc2ccccc21	6.94%
Cc1cc2oc3c(c(=O)c2cc1C)C(c1cccc(O)c1)N(c1nccs1)C3=O (centres unmarked)	-5%
CC(C)CCNS(=O)(=O)c1ccc(Oc2ccc(S(=O)(=O)NCCC(C)C)cc2)cc1	1.17%
CC(C)(C)c1ccc(C(=O)Nc2nnc(COc3ccccc3)s2)cc1	2.7%
CCc1ccc(-n2nc(C)c3c(C(F)(F)F)cc(=O)n(CC(=O)NCc4ccco4)c32)cc1	-0.656%
O=C(/C=C/C(=O)OCC(Cl)=C(Cl)Cl)Nc1ccc(Cl)cc1Cl	1.17%
OC1COC(n2ccc3ccccc32)C(O)C1O (centres unmarked)	-5.65%
O=C(NCc1ccccc1F)C1CCN(C(=O)c2ccc(-n3ccc4ccccc43)s2)CC1	-4.33%
C=CCn1c(C)c(/C=C2\SC(=O)N(CC)C2=O)c2ccccc21	-5.13%
CCOc1ccc(S(=O)(=O)Oc2ccc(Cl)cc2)c2ccccc12	1.67%
CC(C)(Oc1ccc(Cl)cc1)C(=O)N1CCN(C(=O)c2ccco2)CC1	0.0974%
CC(=O)Nc1c(C)cc(C(c2ccc(F)cc2)c2cc(C)c(NC(C)=O)c(C)c2)cc1C	3%
COCCCNC(=O)C1CCN(c2nnc(C)c3c(C)n(-c4ccc(OC)cc4)nc23)CC1	4.88%
CC(C)NC(=O)C1CC(c2ccccc2F)=NO1 (centres unmarked)	4.41%
CCOc1cccc(C(=O)Nc2nnc(COc3ccc(C(C)CC)cc3)s2)c1 (centres unmarked)	-1.93%
COC(=O)c1ccc(COC(=O)N[C@@H](CC(C)C)C(=O)NCC#N)cc1	3.19%
Cc1cc(C)n(CC(=O)N2CCC(C(N)=O)CC2)n1	-4.11%
CN(C)CCCNc1c2ccccc2nc2ccccc12	-3.5%
CC(C)CCN1C(=O)c2ccccc2C1C(=O)NCc1cccnc1 (centres unmarked)	-1.29%
CCOc1ccc(CCNc2nc3cc(OC)c(OC)cc3c3nc(-c4cccnc4)nn23)cc1	0.981%
Cc1ccc(C(C)C)cc1OCc1nc2c3cnn(-c4cccc(F)c4)c3ncn2n1	-1.11%
O=C(O)c1ccc(-n2nnnc2Oc2ccccc2C(=O)N2CCOCC2)cc1	3.73%
COc1cc(-c2cc(NC(=O)c3noc4c3COc3ccccc3-4)on2)cc(OC)c1OC	4.86%
COc1ccc(OC)c(CNC(=O)Cn2ncc3c2-c2ccccc2OC3)c1	2.6%

Structure (SMILES)	% Inhibition @ 10 uM
Cc1nccn1C(=O)c1cc2c(O)nc3ccccc3c2s1	-2.16%
COc1cccc(N(CC(=O)Nc2ccc(OC)c(OC)c2)S(C)(=O)=O)c1	3.72%
CC(C)(C)c1[nH]nc2c1C(c1ccc(F)c(F)c1)C(C#N)=C(N)O2 (centres unmarked)	-8.3%
Cc1ccc(CN2C(=O)N/C(=C\c3ccc(-c4ccc(C(=O)O)cc4C)o3)C2=O)cc1	-3.14%
CCn1cc(/C=C(\NC(=O)c2ccccc2)C(=O)NCCCn2ccnc2)c2ccccc21	-5.36%
CC1=C(C#N)C(c2ccccc2)C2=C(O)CC(C)(C)CC2=N1 (centres unmarked)	2.41%
CCN1CCCC1CNC(=O)CCNC(=O)Cn1cnc2sc3c(c2c1=O)CCCC3 (centres unmarked)	-2.4%
CN(C)/C=N/c1ccc2nonc2c1	-4.5%
Cc1nn(C)cc1C#Cc1ccccc1	3.31%
Cc1ccc2[nH]c(C(O)C(O)c3nc4cc(C)ccc4[nH]3)nc2c1 (centres unmarked)	-1.11%
COc1cc(CCNCc2c(C(=O)O)c(C)n(Cc3cccc(Cl)c3)c2C)cc(OC)c1OC	6.02%
O=C1NC(=O)C(Cc2ccccc2)(Cc2ccccc2)C(=O)N1	-8.2%
Cc1ccc(C2c3c(oc4ccccc4c3=O)C(=O)N2c2nc(C)c(C)s2)cc1 (centres unmarked)	-1.86%
N#CC1=C(N)Oc2cc(O)ccc2C12C(=O)Nc1ccc(Br)cc12 (centres unmarked)	-1.74%
CN(C)CCN1C(=O)C2C(c3ccccc3)C=CC(c3ccccc3)C2C1=O (centres unmarked)	0.408%
Cc1cc(C)n(-c2nc3cc(Cl)c(Cl)cc3n3c(C)nnc23)n1	-0.602%
Cc1ccc2c(c1)-c1onc(C(=O)N(CCN(C)C)Cc3ccco3)c1CO2	-7.84%
CCCSc1ccccc1NC(=O)c1sc2nc(-c3ccncc3)ccc2c1N	-3.71%
C=CCSc1nnc(NC(=O)c2cc(=O)c3cc(Cl)ccc3o2)s1	-1.47%
CCC(NC(=O)Cc1ccccc1)C(=O)O (centres unmarked)	4.82%
Cc1cc(F)ccc1NC(=O)Cn1nc(C(F)(F)F)cc1C1CC1	-3.18%
Cc1ccc2c(c1)C1CN(C)CCC1N2 (centres unmarked)	0.634% and -0.127%
CCOc1ccc(C2C3=C(O)CC(C)(C)CC3=NC(C)=C2C(=O)OC)cc1 (centres unmarked)	-4.77%
CC1CC(C)CN(Cc2nc3c(c(=O)n(C)c(=O)n3C)n2Cc2ccc(Cl)cc2Cl)C1 (centres unmarked)	-4.14%
O=C(c1ccccc1Br)N1CCN(c2ncccn2)CC1	3.32%

Structure (SMILES)	% Inhibition @ 10 uM
CC1(C)CC(=O)C(/C=N/Cc2ccco2)=C(O)C1	-2.27%
Cc1cc2nc3s/c(=C/c4ccccc4)c(=O)n3c2cc1C	-1.37%
N#CC1(NC(=O)[C@H]2CCCC[C@@H]2CBr)CC1	1.7%
C=CCN1C(=O)c2[nH]nc(-c3ccccc3O)c2C1c1ccc(O)cc1 (centres unmarked)	0.00706%
CCC(=O)NCCCOc1ccccc1	4.86%
COc1cccc(-c2cn3c(n2)sc2cc(C(=O)N4CCCCCC4)ccc23)c1	17.6%
Cc1ccccc1CN1CCN(CC(=O)NC2CCCCCCC2)C1=O	0.402%
C=CCC(CN)(CC=C)c1ccc(OC)c(OC)c1	-1.71%
CC(CCc1ccccc1)NC(=O)Cc1noc2ccccc12 (centres unmarked)	1.23%
Cc1cc(C)c2nc(N3CCC(C(=O)N4CCC(C)CC4)CC3)sc2c1	-1.58%
Cc1ccc(NC(=O)c2ccc(OC(C)C)cc2)nc1	5.61%
COc1ccc(C(=O)Nc2ccc(CN3CCOCC3)cc2)cc1Cl	-3.39%
CN(CC1CCCO1)C1CCN(S(=O)(=O)c2csc(C(N)=O)c2)CC1 (centres unmarked)	-1.23%
Nc1nc2cc(Cl)ccc2n1CCCO	0.778%
COC(=O)c1ccc(OCC2c3cc(OC)c(OC)cc3CCN2C(=S)NC(C)(C)C)cc1 (centres unmarked)	-1.2%
COCCN1C(=O)c2[nH]nc(-c3ccccc3O)c2C1c1cc(Br)c(O)c(OC)c1 (centres unmarked)	3.62%
O=C(CNC(=S)N1CC2CC(C1)c1cccc(=O)n1C2)NCc1ccc(F)cc1 (centres unmarked)	-4.06%
CN(CCCNc1nc2ccccc2c2nc(-c3cccnc3)nn12)Cc1ccccc1	-4.21%
Cc1ccc(S(=O)(=O)N(CC(=O)NCc2cccnc2)c2cccc(Cl)c2C)cc1	-9.75%
CCOc1ccc(NC(=O)CN2CCCc3ccccc32)cc1	2.44%
CCOC(=O)C1=C(C)OC(N)=C(C#N)C1c1ccoc1 (centres unmarked)	1.4%
CCOc1ccc(-c2nonc2NC(=O)c2cccc(Cl)c2)cc1	9.74%
COc1cccc(CN2CCN(C3CCN(Cc4ccccc4)CC3)CC2)c1OC	-9.72%
